In publication PMC4336329 (PLoS ONE, 2015):
Among all 310,000 compounds or so, about 14,000 (4.5%) showed an effect of 50% or more. The effect is printed as a negative number. This is one part of the list.

Molecular target: human ether-à-go-go-related gene (hERG) potassium channel (human, UniProt Q12809)
Experiment: primary screen, population patch clamp on CHO cells stably expressing hERG
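Also: peak tail current of the secondary pulse compared with the same well before compound.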

Chain of human ether-à-go-go-related gene (hERG) potassium channel (Q12809 whole entry, looked up): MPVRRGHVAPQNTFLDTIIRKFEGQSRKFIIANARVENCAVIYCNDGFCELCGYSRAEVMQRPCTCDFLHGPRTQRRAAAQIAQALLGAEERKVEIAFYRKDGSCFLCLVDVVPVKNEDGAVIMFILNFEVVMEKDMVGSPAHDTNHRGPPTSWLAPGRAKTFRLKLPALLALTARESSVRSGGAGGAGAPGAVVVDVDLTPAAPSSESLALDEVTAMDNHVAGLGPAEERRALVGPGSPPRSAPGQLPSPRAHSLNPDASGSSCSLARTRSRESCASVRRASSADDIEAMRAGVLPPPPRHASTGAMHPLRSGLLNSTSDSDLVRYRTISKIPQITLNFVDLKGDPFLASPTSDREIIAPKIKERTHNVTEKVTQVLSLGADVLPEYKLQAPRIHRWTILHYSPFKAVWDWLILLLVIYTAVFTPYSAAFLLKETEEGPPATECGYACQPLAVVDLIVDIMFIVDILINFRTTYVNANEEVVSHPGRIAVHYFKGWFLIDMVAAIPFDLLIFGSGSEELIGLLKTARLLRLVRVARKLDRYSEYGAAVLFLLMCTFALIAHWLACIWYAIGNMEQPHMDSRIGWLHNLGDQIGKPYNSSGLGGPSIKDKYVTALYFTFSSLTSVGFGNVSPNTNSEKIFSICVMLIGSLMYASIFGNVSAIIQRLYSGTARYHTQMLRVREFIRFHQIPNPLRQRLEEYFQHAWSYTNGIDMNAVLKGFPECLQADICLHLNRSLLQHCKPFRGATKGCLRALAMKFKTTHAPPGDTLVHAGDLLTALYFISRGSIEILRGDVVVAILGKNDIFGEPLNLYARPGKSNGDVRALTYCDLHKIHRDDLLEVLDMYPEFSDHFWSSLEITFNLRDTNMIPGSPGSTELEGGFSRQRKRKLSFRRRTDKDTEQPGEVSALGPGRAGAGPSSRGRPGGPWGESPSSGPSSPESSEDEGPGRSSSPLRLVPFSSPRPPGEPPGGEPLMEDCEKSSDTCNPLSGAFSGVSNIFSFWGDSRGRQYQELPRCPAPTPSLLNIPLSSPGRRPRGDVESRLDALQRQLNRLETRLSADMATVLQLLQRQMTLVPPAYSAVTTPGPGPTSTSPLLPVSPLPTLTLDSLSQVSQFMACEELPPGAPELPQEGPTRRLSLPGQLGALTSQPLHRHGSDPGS

Compared with `O=S(=O)(NCc1ccc(Cl)cc1)NCc1ccccc1F`, `Cc1c(OCC(=O)NC(Cc2ccc(Cl)cc2)C(=O)O)ccc2c(-c3ccccc3)cc(=O)oc12` (stereo not shown) is higher in “hERG current change (%, negative = inhibition) at 10uM” value: 3.81% for the first, 6.68% for the second.

First: CCCc1nnc(NC(=O)CCC(=O)NCc2ccccc2)s1
Second: Cc1nn(CC(=O)Nc2nnc(C(C)C)s2)c(=O)c2ccccc12
The “hERG current change (%, negative = inhibition) at 10uM” value of the first is lower: 18.8% for the first, 35.5% for the second.

First: COC(=O)c1ccc(/C=N/Nc2nc(-c3ccccc3)cs2)cc1
Second: COc1ccccc1C(=O)N(C)c1nnc(-c2ccccc2)s1
The “hERG current change (%, negative = inhibition) at 10uM” value of the first is higher: 15.4% for the first, -5.79% for the second.

First: O=C(NCc1ccc(F)cc1)C1CCN(S(=O)(=O)c2ccc(Br)s2)CC1
Second: Cc1cccc(NC(=O)C2CCN(S(=O)(=O)c3ccc4c(c3)C(C)(C)C(=O)N4C)CC2)c1C
The “hERG current change (%, negative = inhibition) at 10uM” value of the first is lower: -21% for the first, 21.5% for the second.

Compared with `CCc1nc2ccccc2c(=O)n1NC(=O)c1c(O)c2cccc3c2n(c1=O)CCC3`, `O=C(NCc1ccccc1)c1cc(=O)c2ccccc2o1` is lower in “hERG current change (%, negative = inhibition) at 10uM” value: 20.9% for the first, -0.107% for the second.

First: O=P(Oc1ccccc1)(Oc1ccccc1)C(O)c1ccc(Cl)cc1 (stereo not shown)
Second: COc1ccc(NP(=O)(Oc2ccc(Cl)cc2)Oc2ccc(Cl)cc2)cc1OC
The “hERG current change (%, negative = inhibition) at 10uM” value of the first is higher: 4.7% for the first, -16.6% for the second.

First: Cc1ccccc1CN1CCN(CC2CC2)CC1CCO (stereo not shown)
Second: CN(CCOc1ccccc1)C(=O)C1CCC(=O)N(CCCN2CCOCC2)C1 (stereo not shown)
The “hERG current change (%, negative = inhibition) at 10uM” value of the first is lower: -4.79% for the first, 9.16% for the second.

Going from `N#Cc1c(SCC(=O)Nc2nccs2)sc2c(O)cc(=O)[nH]c12` to `CCSc1nc(C)c(C(C)=O)cc1C#N`, the “hERG current change (%, negative = inhibition) at 10uM” value falls from 7.55% to -1.41%.

Compared with `CC(C)CCn1c(NCCc2ccccc2)nc2c1c(=O)n(C)c(=O)n2C`, `CCN(C(=O)CN1CCCCC1C)c1c(N)n(Cc2ccccc2)c(=O)[nH]c1=O` (stereo not shown) is lower in “hERG current change (%, negative = inhibition) at 10uM” value: -18.3% for the first, -23.1% for the second.

Going from `CCOC(=O)c1cc(=O)[nH]c2ccccc12` to `NC(=O)COC(=O)CCCc1c[nH]c2ccccc12`, the “hERG current change (%, negative = inhibition) at 10uM” value falls from 19% to 10.1%.

Going from `Cc1cc(S(=O)(=O)NCc2cccnc2)ccc1-n1cnnn1` to `COc1ccc(S(=O)(=O)NC(C)C(=O)NCc2ccncc2)cc1OC` (stereo not shown), the “hERG current change (%, negative = inhibition) at 10uM” value rises from -28.7% to 15.7%.

Compared with `Cc1c(CCC(=O)NCC(=O)NCC(=O)O)c(=O)oc2cc3oc4c(c3cc12)CCCC4`, `Cc1oc2cc3oc(=O)c(CCC(=O)NCCCN4CCOCC4)c(C)c3cc2c1C` is lower in “hERG current change (%, negative = inhibition) at 10uM” value: 4.87% for the first, -5.14% for the second.

First: Cc1ccc(S(=O)(=O)Nc2nc(C)cc(-n3nc(C)cc3C)n2)cc1
Second: COC(=O)c1ccc(C(=O)OC)c(NS(=O)(=O)c2ccc(NC(C)=O)cc2)c1
The “hERG current change (%, negative = inhibition) at 10uM” value of the first is higher: -2.61% for the first, -9.32% for the second.

Going from `CC(=O)Nc1cccc(NC(=O)Nc2cccc(F)c2)c1` to `CC(=O)N/N=C(\C)c1cccc(NC(=O)c2cccs2)c1`, the “hERG current change (%, negative = inhibition) at 10uM” value falls from 9.29% to -11.1%.

Going from `COc1cc(-n2c(N)c(C(=O)NCc3ccco3)c3nc4ccccc4nc32)cc(OC)c1OC` to `COc1cc(OC)c(OC)cc1CNC(=O)c1ccc(COc2ccccc2)cc1`, the “hERG current change (%, negative = inhibition) at 10uM” value falls from 16.8% to 16.2%.

Going from `CN(CC(=O)Nc1ccccc1C(F)(F)F)C(=O)c1ccc(N2C(=O)CCC2=O)cc1` to `CCOc1ccc(NC(=NCc2ccc3c(c2)OCO3)SC2CC(=O)N(c3ccc(C(=O)O)cc3)C2=O)cc1` (stereo not shown), the “hERG current change (%, negative = inhibition) at 10uM” value rises from 5.47% to 15.2%.

Going from `CC1(C)OC(=O)C(=NNc2ccccc2C(=O)O)C(=O)O1` to `O=C(CSc1n[nH]c(=O)[nH]c1=O)N/N=C/c1ccccc1`, the “hERG current change (%, negative = inhibition) at 10uM” value falls from 16.3% to 8.14%.

Going from `COc1ccc(C(=O)Nc2cc3c(cc2C#N)OCO3)cc1S(=O)(=O)N1CCN(C)CC1` to `COc1ccc(S(=O)(=O)N2Cc3ccccc3CC2C(=O)Nc2ccc3c(c2)OCO3)cc1` (stereo not shown), the “hERG current change (%, negative = inhibition) at 10uM” value falls from 11.8% to 0.444%.

Compared with `CCOc1ccc(CC2S/C(=N/c3ccccn3)NC2=O)cc1` (stereo not shown), `CCOc1cc(C2NC(=O)c3ccccc3O2)ccc1OC` (stereo not shown) is higher in “hERG current change (%, negative = inhibition) at 10uM” value: -3.79% for the first, 17.1% for the second.

Compared with `COc1cccc(C(=O)OCC(=O)c2ccc(Br)s2)c1`, `CCC(CC)C(=O)Nc1cccc(C(=O)Nc2ccc(OC)cc2[N+](=O)[O-])c1` is higher in “hERG current change (%, negative = inhibition) at 10uM” value: -2.08% for the first, 10.8% for the second.

Going from `Cc1ccc2nc(N3CCC(C(=O)NC4CCCCC4)CC3)sc2c1` to `COc1ccc(C(=O)NNC(=O)C(=O)NC2CCCCC2)cc1`, the “hERG current change (%, negative = inhibition) at 10uM” value falls from 13.4% to -2.26%.

Going from `O=C(COC(=O)CCC1CCCC1)Nc1ccccc1OC(F)F` to `CC(C)(C)NC(=O)CSc1nnc(C2CC2)n1-c1ccccc1`, the “hERG current change (%, negative = inhibition) at 10uM” value falls from 11.8% to 1.48%.

Compared with `Cc1cccc(-n2c(N)c(C(=O)N3CCN(C)CC3)sc2=S)c1`, `CCCNC(=O)N1CCN(S(=O)(=O)c2ccc(C)cc2)CC1` is higher in “hERG current change (%, negative = inhibition) at 10uM” value: 0.595% for the first, 1.4% for the second.

Going from `COc1ccc(C(=O)NNC2=Nc3cccc4cccc2c34)cc1` to `COc1ccc([C@H]2CC(=O)C=C(c3cc(Cl)ccc3OC)C2)cc1`, the “hERG current change (%, negative = inhibition) at 10uM” value falls from 23.9% to 7.4%.

First: CCC(=O)NC(=S)Nc1ccc(S(=O)(=O)NC(C)=O)cc1
Second: COc1ccc(NC(=O)COc2ccc(C(=O)OCC(=O)N(C(C)C)C(C)C)cc2OC)cc1
The “hERG current change (%, negative = inhibition) at 10uM” value of the first is higher: 12.1% for the first, -1.01% for the second.

First: Oc1ccc[n+](CCCCC[n+]2cccc(O)c2)c1.[Br-]
Second: CC(C)NCCCOc1ccc(C(C)(C)c2ccccc2)cc1.O=C(O)C(=O)O
The “hERG current change (%, negative = inhibition) at 10uM” value of the first is higher: 8.07% for the first, 7.21% for the second.

Going from `CCOc1ccc(N(C)S(=O)(=O)c2ccc3[nH]cc(C(=O)NCCCOC)c(=O)c3c2)cc1` to `CSc1ncccc1C(=O)Nc1cccc(S(=O)(=O)N(C)c2ccccc2)c1`, the “hERG current change (%, negative = inhibition) at 10uM” value falls from 3.51% to -18.6%.

Going from `COC(=O)C1CN(S(=O)(=O)c2ccccc2)CCN1S(=O)(=O)c1ccccc1` (stereo not shown) to `CCc1ccc2c(c1)C(=O)C(=O)N2CCS(=O)(=O)c1ccccc1`, the “hERG current change (%, negative = inhibition) at 10uM” value rises from -12.7% to 6.76%.

Going from `C=CCn1c(COc2ccccc2)nnc1SCC(=O)N/N=C/c1cc(Cl)ccc1O` to `COc1ccc(NC(=O)CSc2nnc(CNC(=O)COc3ccc(Cl)cc3)o2)c(OC)c1`, the “hERG current change (%, negative = inhibition) at 10uM” value falls from 0.558% to -12.9%.

Compared with `Cc1ccc2c(c1)C1CN(C)CCC1N2S(=O)(=O)c1ccc(C#N)cc1` (stereo not shown), `Cc1ccc(-c2cc(-c3ccc(C)cc3)[n+](C)o2)cc1.[O-][Cl+3]([O-])([O-])[O-]` is higher in “hERG current change (%, negative = inhibition) at 10uM” value: -72.8% for the first, -68.4% for the second.

Going from `O=[N+]([O-])c1cc2c(c(CSc3nnc4ccccn34)c1)OCOC2` to `CC(C)NC(=O)CSc1ccccc1C(=O)NCc1ccc2c(c1)OCO2`, the “hERG current change (%, negative = inhibition) at 10uM” value rises from -12.4% to -2.28%.

First: CC(=O)Cc1nsc(NC(=O)c2c(-c3ccccc3Cl)noc2C)n1
Second: COC(=O)CC1(C(=O)OC)Oc2ccc(Br)cc2C(=O)N1c1cccc(Cl)c1Cl (stereo not shown)
The “hERG current change (%, negative = inhibition) at 10uM” value of the first is higher: 14.4% for the first, 10.2% for the second.

First: C=CCn1c(SCC(=O)c2[nH]c(C)c(C(=O)OC)c2C)nc2scc(-c3ccc(OC)c(OC)c3)c2c1=O
Second: COc1ccc(-c2coc3cc(O)cc(O)c3c2=O)cc1OC
The “hERG current change (%, negative = inhibition) at 10uM” value of the first is higher: 22.5% for the first, 5.23% for the second.

Compared with `CCC(C)(C)NC(=O)Cn1c(-c2ccc(C)cc2)noc1=O`, `COc1ccc(CNC(=O)c2nnn(CC(=O)Nc3cc(C)cc(C)c3)c2N)cc1` is lower in “hERG current change (%, negative = inhibition) at 10uM” value: 13.5% for the first, 11.9% for the second.

First: COc1cc(C2c3c(n[nH]c3C)C(=O)N2c2ccc(Br)cc2)ccc1O (stereo not shown)
Second: COc1ccc(/C(O)=C2/C(=O)C(=O)N(CCN(C)C)C2c2cccnc2)cc1C (stereo not shown)
The “hERG current change (%, negative = inhibition) at 10uM” value of the first is higher: 3.14% for the first, 1.58% for the second.

Going from `CC(C)N(Cc1ccccc1)C(=O)C1CCCN(c2ncnc3c2nc2n3CCCCC2)C1` (stereo not shown) to `CCCCn1c(O)c(/C=N/N2CCCCC2c2cccnc2)c(=O)[nH]c1=S` (stereo not shown), the “hERG current change (%, negative = inhibition) at 10uM” value rises from -44.3% to -33.7%.

Compared with `COc1ccc(CNc2ccc3c(c2)ncn3C)cc1OC`, `COc1ccc(C(=O)NCC(=O)N/N=C/c2ccc(C)o2)cc1OC` is higher in “hERG current change (%, negative = inhibition) at 10uM” value: 15.8% for the first, 16.4% for the second.

First: CC(=O)N(CCO)Cc1cc2cc(C)cc(C)c2[nH]c1=O
Second: COc1ccc2c(c1)O[C@H](c1ccc3c(c1)OCO3)[C@@H](O)C2=O
The “hERG current change (%, negative = inhibition) at 10uM” value of the first is higher: 8.65% for the first, -1.54% for the second.

Going from `Cc1cccc(C2CC(c3ccccc3)Nc3nc(N)nn32)c1` (stereo not shown) to `O=C(O)c1ccccc1C(=O)Nc1c(-c2ccccc2)nc2ccccn12`, the “hERG current change (%, negative = inhibition) at 10uM” value rises from -15.5% to 8.42%.

Compared with `CN(C)c1cccc(C(=O)OCCNC(=O)c2cccc(S(=O)(=O)N3CCOCC3)c2)c1`, `COc1ccc2nc(NC(=O)CN3CCOCC3)sc2c1` is lower in “hERG current change (%, negative = inhibition) at 10uM” value: -8.21% for the first, -14.8% for the second.

Compared with `COc1cc(NC(=O)c2nnn(Cc3ccc(SC)cc3)c2N)cc(OC)c1`, `CCOc1cc(/C=C2\C(=O)ON=C2c2ccccc2)cc(Br)c1O` is lower in “hERG current change (%, negative = inhibition) at 10uM” value: -7.72% for the first, -8.18% for the second.

First: Cc1cn([C@H]2C[C@H](N=[N+]=[N-])[C@@H](CO)O2)c(=O)[nH]c1=O
Second: Fc1cccc(C2NC(=S)NC3=C2N2CCC3CC2)c1 (stereo not shown)
The “hERG current change (%, negative = inhibition) at 10uM” value of the first is higher: 13.9% for the first, -1.84% for the second.

For `CCCCc1ccc(-c2csc(/C(C#N)=C\c3ccco3)n2)cc1`, the “hERG current change (%, negative = inhibition) at 10uM” value was -5.37%.
